Assay results as given in PMC4336329 (PLoS ONE, 2015).
Out of some 310,000 compounds screened, about 14,000 (4.5%) showed an effect of 50% or more. Effects have a minus sign here. Some of the results follow.

target: human ether-à-go-go-related gene (hERG) potassium channel (human, UniProt Q12809); assay: primary screen, population patch clamp on CHO cells stably expressing hERG
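Note: peak tail current of the secondary pulse compared with the same well before compound.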

human ether-à-go-go-related gene (hERG) potassium channel, sequence (Q12809 whole entry, looked up): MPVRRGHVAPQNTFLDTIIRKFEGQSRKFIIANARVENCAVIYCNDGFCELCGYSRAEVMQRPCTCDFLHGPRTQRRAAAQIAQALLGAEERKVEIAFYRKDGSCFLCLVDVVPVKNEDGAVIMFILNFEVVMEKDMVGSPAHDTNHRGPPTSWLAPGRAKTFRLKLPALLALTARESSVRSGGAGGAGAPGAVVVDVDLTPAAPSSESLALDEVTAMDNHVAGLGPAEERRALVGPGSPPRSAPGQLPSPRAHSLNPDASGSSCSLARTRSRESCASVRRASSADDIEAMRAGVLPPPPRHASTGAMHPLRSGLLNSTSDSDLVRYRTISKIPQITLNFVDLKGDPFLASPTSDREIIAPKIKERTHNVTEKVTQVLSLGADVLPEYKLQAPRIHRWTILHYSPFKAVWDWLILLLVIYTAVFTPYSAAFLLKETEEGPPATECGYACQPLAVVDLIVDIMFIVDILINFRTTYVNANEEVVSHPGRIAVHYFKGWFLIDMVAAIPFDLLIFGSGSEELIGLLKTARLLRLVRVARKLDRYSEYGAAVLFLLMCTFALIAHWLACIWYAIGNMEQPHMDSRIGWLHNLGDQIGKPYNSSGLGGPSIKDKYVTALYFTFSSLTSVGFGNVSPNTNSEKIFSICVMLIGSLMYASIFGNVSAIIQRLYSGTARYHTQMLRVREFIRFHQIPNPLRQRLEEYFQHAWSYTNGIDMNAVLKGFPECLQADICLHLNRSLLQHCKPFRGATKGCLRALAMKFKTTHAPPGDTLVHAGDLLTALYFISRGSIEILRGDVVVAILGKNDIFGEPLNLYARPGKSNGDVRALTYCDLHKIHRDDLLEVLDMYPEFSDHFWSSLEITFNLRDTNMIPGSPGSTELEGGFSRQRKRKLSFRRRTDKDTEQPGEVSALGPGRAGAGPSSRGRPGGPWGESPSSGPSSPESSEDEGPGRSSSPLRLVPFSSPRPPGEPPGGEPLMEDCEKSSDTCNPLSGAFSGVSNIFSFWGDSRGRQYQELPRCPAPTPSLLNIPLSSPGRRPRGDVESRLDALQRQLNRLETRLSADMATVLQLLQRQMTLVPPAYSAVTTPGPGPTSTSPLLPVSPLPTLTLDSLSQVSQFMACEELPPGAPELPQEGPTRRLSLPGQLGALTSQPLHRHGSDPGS

Structure (SMILES) | hERG current change (%, negative = inhibition) at 10uM
Cc1cc(N2CCOCC2)nc2ccc(Cl)cc12 | 9.25%
CCc1cccc2c1NC(=O)C2(O)N1CCCC(C)C1 (stereo not shown) | 12%
CC(C)n1c(SCC(=O)NCc2ccco2)nc2c1c(=O)n(C)c(=O)n2C | -3.45%
Cc1cccc(C)c1NC(=O)C1c2cccc[n+]2CC(=O)N1Cc1ccc2c(c1)OCO2.[I-] (stereo not shown) | 19%
CCOC(=O)/C(C#N)=C/c1ccc(OCC(=O)Nc2ccccc2)c(OC)c1 | 5.21%
O=C(CSc1nnc(-c2ccco2)n1Cc1ccco1)NCc1ccccc1 | -50.8%
O=C(CSc1nc2c(c(=O)n1-c1ccccc1)SCC2)N1CCN(c2ccccc2)CC1 | -76.5%
CCN(CC)S(=O)(=O)c1cccc(NC(=O)CNc2cccc(S(=O)(=O)N3CCOCC3)c2)c1 | -15.5%
Cc1nc2ccc(NC(=O)C(F)(F)F)cc2o1 | -6.51%
Cc1c(NC(=O)CSc2nc3ccccc3n2C)c(=O)n(-c2ccccc2)n1C | -3.98%
CC(=O)c1ccc(N2CCN(C(=O)CCC(=O)c3cccs3)CC2)cc1 | -43.3%
Cc1nn2c(N3CCN(C(=O)c4ccco4)CC3)cc(C(C)(C)C)nc2c1-c1ccccc1 | 1.48%
N#Cc1c(N)nc2c(c1N)CC(CO)O2 (stereo not shown) | 22.6%
CCCN1CCC(NC(=O)C2CC=CCC2C(=O)O)CC1 (stereo not shown) | 7.93%
FC(F)(F)c1cccc(-c2cc(C3CCNCC3)[nH]n2)c1 | -44.3%
Cc1cccc2sc(NNC(=O)c3cc(=O)c4ccccc4o3)nc12 | 10.5%
O=Cc1cn(CC(=O)N2CCCCCC2)c2ccccc12 | 7.16%
Cl.O=C(CN1CCCCC1)NC1CCc2cc3c(cc21)CCC3 (stereo not shown) | -7.06%
CCN(CC(=O)Nc1c(F)cccc1F)C(=O)CCNS(=O)(=O)c1ccc(C)c(C)c1 | 1.26%
Cc1ccc(NC(=O)NC2=NN(c3ccccc3)C(=O)/C2=C2/CCCN2C)cc1 | 3.31%
C/C(=N/OCC(=O)Nc1ccccc1)c1cccs1 | 3.34%
COCCCNC(=S)N/N=C/c1ccc(O)cc1 | 12.2%
O=C(CSc1nccc2ccccc12)N1CCN(c2ccccn2)CC1 | -16.5%
CC1CCCN(C(=O)c2cc3ccccc3cc2O)C1 (stereo not shown) | -6.88%
CN(c1ccccc1)c1ccc(/C=N/NC(=O)CC#N)cc1 | 9.89%
